{"source": "PubChem BioAssay (Tox21)", "key": {"[1]": {"target": "Glucocorticoid receptor (Homo sapiens) (UniProt P04150)", "sequence (P04150 whole entry, looked up)": "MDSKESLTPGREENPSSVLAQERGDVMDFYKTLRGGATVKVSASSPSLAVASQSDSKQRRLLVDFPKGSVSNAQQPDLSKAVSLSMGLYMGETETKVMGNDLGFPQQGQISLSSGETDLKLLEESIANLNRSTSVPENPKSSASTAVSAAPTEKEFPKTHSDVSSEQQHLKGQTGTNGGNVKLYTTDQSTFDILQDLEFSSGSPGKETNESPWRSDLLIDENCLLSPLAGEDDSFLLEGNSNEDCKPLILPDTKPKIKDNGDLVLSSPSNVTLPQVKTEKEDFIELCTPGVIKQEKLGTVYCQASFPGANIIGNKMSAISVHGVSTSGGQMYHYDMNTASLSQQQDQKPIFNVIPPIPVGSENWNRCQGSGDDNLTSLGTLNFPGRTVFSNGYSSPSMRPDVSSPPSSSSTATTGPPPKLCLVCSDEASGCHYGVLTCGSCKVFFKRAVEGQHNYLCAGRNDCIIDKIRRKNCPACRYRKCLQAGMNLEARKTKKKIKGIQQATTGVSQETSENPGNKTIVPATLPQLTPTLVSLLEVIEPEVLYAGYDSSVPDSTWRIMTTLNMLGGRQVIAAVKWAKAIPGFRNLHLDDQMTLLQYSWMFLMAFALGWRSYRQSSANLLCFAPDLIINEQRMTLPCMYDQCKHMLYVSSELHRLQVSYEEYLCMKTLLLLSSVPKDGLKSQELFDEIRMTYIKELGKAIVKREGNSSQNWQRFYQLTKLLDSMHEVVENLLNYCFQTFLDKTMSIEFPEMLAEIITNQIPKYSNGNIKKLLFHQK", "assay": "qHTS assay to identify small molecule agonists of the glucocorticoid receptor (GR) signaling pathway (AID 720691; active means well fitted activation curve with a large enough effect in the signal ratio in the repeat runs, not every such curve was filed as active; inconclusive means weak or mixed curves, or effect the other way; inactive means no such curve, though single readings can be large or run the other way; the % refers to the signal ratio)", "settings": "GR-bla HeLa, beta-lactamase reporter ratio, 18 h; activation: at 62.4 µM (top of the series) unless noted", "summary_of_the_method": "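Fluorescence intensity from LiveBLAzer B/G FRET substrate (2 h, room temperature) reports beta-lactamase expression driven by the glucocorticoid response element in GR-bla HeLa cells after 18 h compound exposure at 37 C.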"}, "[2]": {"target": "Glucocorticoid receptor (Homo sapiens) (UniProt P04150)", "assay": "qHTS assay to identify small molecule antagonists of the glucocorticoid receptor (GR) signaling pathway (AID 720692; active means well fitted inhibition curve with a large enough effect in the signal ratio in the repeat runs, not every such curve was filed as active; inconclusive means weak or mixed curves, or effect the other way; inactive means no such curve, though single readings can be large or run the other way; the % refers to the signal ratio)", "settings": "GR-bla HeLa, beta-lactamase FRET ratio, dexamethasone-stimulated, 18 h; activity change, negative = inhibition: at 58.5 µM (top of the series) unless noted", "summary_of_the_method": "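HeLa GR-bla cells; cmpd + dex 5 nM final, 18 h 37 C; LiveBLAzer B/G FRET substrate 2 h RT; fluorescence intensity read. Antagonist mode, qHTS.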"}, "[3]": {"assay": "qHTS assay for identifying genotoxic compounds that show differential cytotoxicity against isogenic chicken DT40 cell lines with known DNA damage response pathways - Rev3 mutant cell line (AID 743014); further: nearly all actives have a fitted effect of over 55% in size", "settings": "chicken DT40 Rev3-/- viability, CellTiter-Glo, 40 h; activity, negative = cytotoxicity: at 68.4 µM (top of the series) unless noted"}, "[4]": {"target": "Androgen receptor (Homo sapiens) (UniProt P10275)", "sequence (P10275 whole entry, looked up)": "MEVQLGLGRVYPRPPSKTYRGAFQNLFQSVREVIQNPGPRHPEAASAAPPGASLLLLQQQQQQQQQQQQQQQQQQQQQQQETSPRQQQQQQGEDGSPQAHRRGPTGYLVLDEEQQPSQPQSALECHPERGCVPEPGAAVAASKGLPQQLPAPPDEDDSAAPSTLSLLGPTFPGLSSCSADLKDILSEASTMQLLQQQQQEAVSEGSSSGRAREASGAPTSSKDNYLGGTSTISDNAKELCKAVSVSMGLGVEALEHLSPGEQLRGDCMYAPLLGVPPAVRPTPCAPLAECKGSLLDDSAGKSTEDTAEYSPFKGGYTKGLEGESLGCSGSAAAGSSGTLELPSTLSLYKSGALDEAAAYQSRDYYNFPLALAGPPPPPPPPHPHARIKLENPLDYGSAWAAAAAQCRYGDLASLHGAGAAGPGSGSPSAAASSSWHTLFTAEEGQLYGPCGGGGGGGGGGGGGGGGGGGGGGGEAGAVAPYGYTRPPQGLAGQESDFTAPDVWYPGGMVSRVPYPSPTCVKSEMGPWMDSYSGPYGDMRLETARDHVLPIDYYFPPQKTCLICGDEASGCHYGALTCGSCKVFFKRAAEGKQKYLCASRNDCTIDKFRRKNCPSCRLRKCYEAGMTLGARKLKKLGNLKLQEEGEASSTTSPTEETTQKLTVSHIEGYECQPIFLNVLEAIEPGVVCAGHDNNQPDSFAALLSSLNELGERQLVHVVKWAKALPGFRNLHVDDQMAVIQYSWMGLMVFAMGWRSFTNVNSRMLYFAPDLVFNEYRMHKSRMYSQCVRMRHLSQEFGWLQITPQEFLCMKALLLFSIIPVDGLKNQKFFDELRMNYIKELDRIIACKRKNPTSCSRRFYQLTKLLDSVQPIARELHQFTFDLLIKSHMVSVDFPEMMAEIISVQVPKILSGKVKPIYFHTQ", "assay": "qHTS assay to identify small molecule antagonists of the androgen receptor (AR) signaling pathway (AID 743035; active means well fitted inhibition curve with a large enough effect in the signal ratio in the repeat runs, not every such curve was filed as active; inconclusive means weak or mixed curves, or effect the other way; inactive means no such curve, though single readings can be large or run the other way; the % refers to the signal ratio)", "settings": "HEK293 AR-UAS-bla, R1881-stimulated, beta-lactamase FRET, 16 h; activity change, negative = inhibition: at 58.5 µM (top of the series) unless noted", "summary_of_the_method": "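Fluorescence from a beta-lactamase FRET substrate (LiveBLAzer B/G, 2 h, room temperature) measured inhibition of R1881-stimulated signaling in GeneBLAzer AR-UAS-bla HEK293 cells exposed to compound for 16 h at 37C.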"}, "[5]": {"assay": "qHTS assay for identifying genotoxic compounds that show differential cytotoxicity against isogenic chicken DT40 cell lines with known DNA damage response pathways - Rad54/Ku70 mutant cell line (AID 743015); further: nearly all actives have a fitted effect of over 60% in size", "settings": "DT40 Rad54/Ku70 mutant viability, CellTiter-Glo, 40 h; activity change, negative = cytotoxicity: at 66.8 µM (top of the series)"}, "[6]": {"assay": "qHTS assay to identify small molecule antagonists of the glucocorticoid receptor (GR) signaling pathway - cell viability counter screen (AID 720693); further: nearly all actives have a fitted effect of over 55% in size", "settings": "GR-bla HeLa viability, CellTiter-Glo luminescence, 18 h, with 5 nM dexamethasone present; viability change, negative = cytotoxic: at 58.5 µM (top of the series) unless noted"}, "[7]": {"assay": "qHTS assay to identify small molecule antagonists of the androgen receptor (AR) signaling pathway - cell viability counter screen (AID 743033; further: nearly all actives have a fitted effect of over 45% in size)", "settings": "AR-bla HEK293 viability, CellTiter-Glo luminescence, 16 h; activity change, negative = cytotoxicity: at 58.5 µM (top of the series) unless noted"}, "[8]": {"assay": "qHTS assay for identifying genotoxic compounds that show differential cytotoxicity against isogenic chicken DT40 cell lines with known DNA damage response pathways - wild type cell line (AID 743012); further: nearly all actives have a fitted effect of over 60% in size", "settings": "DT40 wild type chicken cells viability, CellTiter-Glo, 40 h; activity change, negative = cytotoxicity: at 68.4 µM (top of the series) unless noted", "summary_of_the_method": "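Wild type DT40, 300 cells/well, ~0.5 h settle at 37 C/5% CO2; compounds in DMSO added by pintool; 40 h at 37 C/5% CO2; CellTiter-Glo, 30 min RT; luminescence.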"}}, "note": "Where “and” joins values, the source holds several entries; their conditions need not be identical. Equal entries are not always repeated. Calls of active or inactive are those of the source. Unless noted, the call rests on the fitted dose curve; in most records, active means well fitted curve in the direction sought with a large enough effect in the repeat runs; inconclusive means weak or mixed curves; inactive means no such curve, though single readings can be large; an effect the other way counts as inactive or inconclusive. On the % scale 0 is the no-effect control and ±100 the full control effect; potency means the concentration at half of the fitted maximal effect; tags describe the fitted curve by direction and shape or compound fluorescence and quenching.", "data": [{"molecule": "COC(=O)Nc1ccc(Cl)c(Cl)c1", "values": [{"measurement": "Potency", "setting": "[1]", "result": "inactive"}, {"measurement": "activity change, negative = inhibition", "setting": "[2]", "result": "inconclusive: 11.4%"}, {"measurement": "Potency", "setting": "[3]", "result": "inactive"}, {"measurement": "Potency", "setting": "[4]", "result": "inconclusive: 34.5 µM [falling, partial curve]"}]}, {"molecule": "CC1=C2[C@H](/C=C(\\C)C(=O)O)CC[C@@H](C)[C@H]2CC1", "values": [{"measurement": "activation", "setting": "[1]", "result": "inconclusive: -11.2% [at 79.2 µM]"}, {"measurement": "activity change, negative = inhibition", "setting": "[4]", "result": "inconclusive: -39.2% [at 78.9 µM]"}]}, {"molecule": "CCCCCCCCCC(C)C=O", "note": "(stereo not given)", "values": [{"measurement": "Potency", "setting": "[1]", "result": "inactive"}, {"measurement": "Potency", "setting": "[2]", "result": "inconclusive: 17.4 µM [rising, partial curve, poor fit]"}, {"measurement": "Potency", "setting": "[5]", "result": "inactive"}]}, {"molecule": "C[C@]12CCC(=O)C=C1[C@@H]1C[C@@H]1[C@H]1[C@@H]3[C@@H]4C[C@@H]4[C@@]4(CCC(=O)O4)[C@@]3(C)CC[C@@H]12", "values": [{"measurement": "activation", "setting": "[1]", "result": "inconclusive: -13.4%"}, {"measurement": "Potency", "setting": "[6]", "result": "inconclusive: 7.56 µM [cytotoxic, full curve]"}, {"measurement": "Potency", "setting": "[5]", "result": "inconclusive: 11.9 µM [cytotoxic]"}]}, {"molecule": "CCOc1ccccc1N", "values": [{"measurement": "Potency", "setting": "[2]", "result": "inactive"}]}, {"molecule": "CC(=O)OCC(=O)[C@@]12N=C(C)O[C@@H]1C[C@H]1[C@@H]3CCC4=CC(=O)C=C[C@]4(C)[C@H]3[C@@H](O)C[C@@]12C", "values": [{"measurement": "Potency", "setting": "[1]", "result": "active: 425 nM and active: 155 nM"}, {"measurement": "Potency", "setting": "[2]", "result": "inconclusive: 848 nM [activator, full curve, poor fit] and inconclusive: 347 nM [activator, full curve]"}, {"measurement": "Potency", "setting": "[3]", "result": "inconclusive: 33.5 µM [rising, partial curve, poor fit]"}, {"measurement": "Potency", "setting": "[7]", "result": "inactive"}]}, {"molecule": "NC(Cc1ccc(Cl)cc1)C(=O)O", "note": "(stereo not given)", "values": [{"measurement": "Potency", "setting": "[1]", "result": "inactive"}, {"measurement": "Potency", "setting": "[3]", "result": "inconclusive: 26.6 µM [rising, partial curve, poor fit]"}, {"measurement": "Potency", "setting": "[7]", "result": "inactive"}]}, {"molecule": "Nc1cc(S(=O)(=O)O)ccc1O", "values": [{"measurement": "Potency", "setting": "[2]", "result": "inactive"}]}, {"molecule": "Cc1occc1C(=O)Nc1ccc(C(=O)N2CCC(F)(F)/C(=C\\C(=O)N3CCC(N4CCCCC4)CC3)c3ccccc32)cc1", "values": [{"measurement": "Potency", "setting": "[1]", "result": "inactive"}, {"measurement": "Potency", "setting": "[5]", "result": "inconclusive: 21.4 µM [cytotoxic, single point]"}, {"measurement": "activity change, negative = inhibition", "setting": "[4]", "result": "inconclusive: -43.5% [at 27 µM]"}]}, {"molecule": "CCCCC(CC)C(=O)OCCOCCOCCOCCOC(=O)C(CC)CCCC", "note": "(stereo not given)", "values": [{"measurement": "Potency", "setting": "[1]", "result": "inactive"}, {"measurement": "Potency", "setting": "[8]", "result": "active: 27.3 µM"}]}, {"molecule": "CCNC(=O)N1CCN(CCCC(c2ccc(F)cc2)c2ccc(F)cc2)CC1", "values": [{"measurement": "Potency", "setting": "[1]", "result": "inactive"}, {"measurement": "Potency", "setting": "[2]", "result": "inconclusive: 13.4 µM [rising, partial curve, poor fit]"}, {"measurement": "Potency", "setting": "[7]", "result": "inconclusive: 21.3 µM [cytotoxic, partial curve]"}]}, {"molecule": "O=C(Nc1ccccc1)c1cc([N+](=O)[O-])ccc1Cl", "values": [{"measurement": "activation", "setting": "[1]", "result": "inconclusive: -13.4%"}, {"measurement": "Potency", "setting": "[2]", "result": "inconclusive: 5.49 µM [rising, full curve, poor fit]"}, {"measurement": "Potency", "setting": "[3]", "result": "active: 68.6 µM"}, {"measurement": "Potency", "setting": "[4]", "result": "active: 24.5 µM"}]}, {"molecule": "CCCOCCOCCO", "values": [{"measurement": "Potency", "setting": "[2]", "result": "inactive"}]}, {"molecule": "CC(=O)[C@H]1CC[C@H]2[C@@H]3C[C@H](C)C4=CC(=O)CC[C@]4(C)[C@H]3[C@@H](O)C[C@]12C", "values": [{"measurement": "Potency", "setting": "[1]", "result": "active: 32.3 nM"}, {"measurement": "Potency", "setting": "[2]", "result": "inconclusive: 5.74 µM [inhibitor, single point]"}, {"measurement": "Potency", "setting": "[3]", "result": "inconclusive: 5.69 µM [cytotoxic, partial curve]"}, {"measurement": "Potency", "setting": "[5]", "result": "inconclusive: 12.7 µM [cytotoxic, single point]"}]}, {"molecule": "CCCCC(=O)OCC(=O)[C@H]1[C@H](C)C[C@H]2[C@@H]3C[C@H](F)C4=CC(=O)C=C[C@]4(C)[C@@]3(F)[C@@H](O)C[C@@]21C", "values": [{"measurement": "Potency", "setting": "[1]", "result": "active: 7.6 nM [inconclusive]"}, {"measurement": "Potency", "setting": "[2]", "result": "inconclusive: 0.012 µM [activator, full curve]"}, {"measurement": "activity change, negative = inhibition", "setting": "[4]", "result": "inconclusive: 54.8%"}]}, {"molecule": "Cn1c(NCCN(CCO)CCCc2ccc([N+](=O)[O-])cc2)cc(=O)n(C)c1=O", "values": [{"measurement": "Potency", "setting": "[1]", "result": "inconclusive: 8490 nM [rising, partial curve]"}, {"measurement": "Potency", "setting": "[3]", "result": "inactive"}, {"measurement": "Potency", "setting": "[5]", "result": "inactive"}]}, {"molecule": "CCCCNC(=S)NCCCC", "values": [{"measurement": "Potency", "setting": "[1]", "result": "inactive"}, {"measurement": "Potency", "setting": "[3]", "result": "active: 34.4 µM"}, {"measurement": "Potency", "setting": "[7]", "result": "inconclusive: 54.9 µM [cytotoxic, single point]"}]}, {"molecule": "COC(=O)c1ccc2cc(C(=O)OC)ccc2c1", "values": [{"measurement": "Potency", "setting": "[1]", "result": "inactive"}, {"measurement": "Potency", "setting": "[8]", "result": "inconclusive: 0.352 µM [rising, single point]"}]}, {"molecule": "O=S(=O)(O)c1cccc2ccccc12", "values": [{"measurement": "Potency", "setting": "[2]", "result": "inconclusive: 49 µM [inhibitor, partial curve]"}]}, {"molecule": "Cc1ccc(S(=O)(=O)NCl)cc1", "values": [{"measurement": "activity change, negative = inhibition", "setting": "[2]", "result": "inconclusive: 3.96%"}]}, {"molecule": "CCCCCCCCCCCCCCOS(=O)(=O)O", "values": [{"measurement": "Potency", "setting": "[1]", "result": "inconclusive: 490 nM [activator, single point]"}, {"measurement": "Potency", "setting": "[3]", "result": "inconclusive: 15.4 µM [cytotoxic, partial curve]"}, {"measurement": "Potency", "setting": "[5]", "result": "inconclusive: 30.6 µM [cytotoxic, partial curve]"}, {"measurement": "Potency", "setting": "[7]", "result": "inconclusive: 54.9 µM [cytotoxic, partial curve, poor fit]"}]}, {"molecule": "C=CCOc1ccccc1OCC(O)CNC(C)C", "note": "(stereo not given)", "values": [{"measurement": "activation", "setting": "[1]", "result": "inconclusive: 0.653% [at 29.2 µM]"}, {"measurement": "Potency", "setting": "[6]", "result": "inactive"}, {"measurement": "Potency", "setting": "[8]", "result": "inactive"}]}, {"molecule": "CC(C)CCCCCCCOC(=O)c1ccc(C(=O)OCCCCCCCC(C)C)c(C(=O)OCCCCCCCC(C)C)c1", "values": [{"measurement": "Potency", "setting": "[1]", "result": "inactive"}, {"measurement": "Potency", "setting": "[8]", "result": "inactive"}, {"measurement": "Potency", "setting": "[5]", "result": "inactive"}]}, {"molecule": "CCCCC(CC)COC(=O)CCCCCCCCC(=O)OCC(CC)CCCC", "note": "(stereo not given)", "values": [{"measurement": "Potency", "setting": "[2]", "result": "inactive"}]}, {"molecule": "O=C1N(c2ccccc2)c2ccccc2C1(Cc1ccncc1)Cc1ccncc1", "values": [{"measurement": "Potency", "setting": "[1]", "result": "inactive"}, {"measurement": "Potency", "setting": "[8]", "result": "inconclusive: 0.75 µM [cytotoxic, full curve]"}, {"measurement": "Potency", "setting": "[3]", "result": "inconclusive: 1.33 µM [cytotoxic, partial curve, poor fit]"}]}]}
